# Positions count from the first letter of the chain named.
# B1: 50 (antibody)
# heavy: QMQLVQSGAEVKKPGSSVKVSCKASGGTFSSYAISWVRQAPGQGLEWMGGIIPIFGTANYAQKFQGRVTITADESTSTAYMELSSLRSEDTAVYYCASSPLRGSGWYWHYYYGMDVWGQGTTVTVSSASTKGPSVFPLAPSSKSTSGGTAALGCLVKDYFPEPVTVSWNSGALTSGVHTFPAVLQSSGLYSLSSVVTVPSSSLGTQTYICNVNHKPSNTKVDKRV[omitted - human IgG1 Fc]
# light: SYVLTQPPSVSVAPGKTARITCGGNNIGTKSVHWYQQKPGQSPVLVIYQDRKRPSGIPERFSGSNSGNTATLTISGTQAMDEADYYCQVWDSSTEVFGGGTKLTVLGQPKAAPSVTLFPPSSEELQANKATLVCLISDFYPGAVTVAWKADSSPVKAGVETTTPSKQSNNKYAASSYLSLTPEQWKSHRSYSCQVTHEGSTVEKTVAPTECS
# B2: 5 (antibody)
# heavy: EVQLVQSGAEVKKPGASVKVSCKVSGYTLTELSMQWVRQAPGKGLEWMGGFDPDDGETMYAEKFQGRLTVTEDTSTDTVYMELRSLTSEDTALYFCATSPGYDFFDYWGQGTLVTVSSASTKGPSVFPLAPSSKSTSGGTAALGCLVKDYFPEPVTVSWNSGALTSGVHTFPAVLQSSGLYSLSSVVTVPSSSLGTQTYICNVNHKPSNTKVDKRV[omitted - human IgG1 Fc]
# light: SYVLTQPPSVSVAPGQTASITCVGTNFGSKNVHWYQQRPGQAPVLVVYDDSDRPSGIPERFSGSNSGNTATLTISRVEAGDEADYYCQVWDSSSDHLIFGGGTKLTVLGQPKAAPSVTLFPPSSEELQANKATLVCLISDFYPGAVTVAWKADSSPVKAGVETTTPSKQSNNKYAASSYLSLTPEQWKSHRSYSCQVTHEGSTVEKTVAPTECS
# B3: 7 (antibody)
# heavy: B2 heavy
# light: B2 light with S75N, S94N, H96L
# B4: 28 (antibody)
# heavy: B2 heavy
# light: B2 light with V3E, S19R, V23G, T25N, F27I, N31S, R38K, S92A, S93D, H96Q
# B5: 12 (antibody)
# heavy: B2 heavy with D55G
# light: SYVLTQPPSVSVAPGQTARVSCGGNNIGSKSVNWYRQKPGQAPVLVIYDDSDRPSGIPERFSGSNSGNTATLTINRVEAGDEADYYCQVWDSSNDLLIFGGGTKLTVLGQPKAAPSVTLFPPSSEELQANKATLVCLISDFYPGAVTVAWKADSSPVKAGVETTTPSKQSNNKYAASSYLSLTPEQWKSHRSYSCQVTHEGSTVEKTVAPTECS
# B6: 11 (antibody)
# heavy: B2 heavy with Q3R
# light: QSALTQPRSVSGSPGQSVTISCTGTSSDVGGYNYVSWYQQHPGKAPKLMIYDVSKRPSGVPDRFSGSNSGNTATLTINRVEAGDEADYYCQVWDSSNDLLIFGGGTKLTVLGQPKAAPSVTLFPPSSEELQANKATLVCLISDFYPGAVTVAWKADSSPVKAGVETTTPSKQSNNKYAASSYLSLTPEQWKSHRSYSCQVTHEGSTVEKTVAPTECS
# B7: 25 (antibody)
# heavy: B2 heavy
# light: B5 light with V3E, S11A, V20I, S21T, S29R, S31A, N33H, R36Q, I47V
# B8: 30 (antibody)
# heavy: B2 heavy
# light: B5 light with Q16K, R19T, V20I, S21T, S29T, N33H, R36Q, I47V
# B9: 8 (antibody)
# heavy: B2 heavy with E1Q, A16S
# light: B2 light with V3E, S19R, V23G, T25N, F27I, N31S, R38K, N68R, Y86H, I98V
# B10: 29 (antibody)
# heavy: B2 heavy
# light: B5 light with Q16K, V20I, S21T, N33H, R36Q, I47V, N75S, N94S, T103A
# B11: 26 (antibody)
# heavy: B2 heavy
# light: B2 light with S19R, V23G, T25N, F27I, N31S, R38K, S94I, L105V
# B12: 27 (antibody)
# heavy: B2 heavy
# light: B5 light with V20I, S21T, S29I, N33H, R36Q, I47V, S51R
# B13: 16 (antibody)
# heavy: B2 heavy
# light: B5 light with Q16K, V20I, S21T, I27T, N33H, R36Q, I47V
# B14: 24 (antibody)
# heavy: B2 heavy with F64L
# light: B5 light with Q16K, V20I, S21T, N33H, R36Q, I47V
# B15: 21 (antibody)
# heavy: B2 heavy with K23E
# light: B5 light with N75S
# Target: T1, recombinant MBP-mutCALR Type 1 fusion protein (Homo sapiens, UniProt P27797, DEL40-40)
# T1 construct: His6 (N); purchased Cepter (cepterbiopartners.com), custom made
# Assay: Biacore SPR binding kinetics, Experiment 1
# Conditions: Biacore 8K, 25° C., 1:1 binding model
ka,kd,Molecule
249000 M⁻¹ s⁻¹,0.00104 s⁻¹,B1
935000 M⁻¹ s⁻¹,0.00405 s⁻¹,B2
1.59e+06 M⁻¹ s⁻¹,0.00609 s⁻¹,B3
460000 M⁻¹ s⁻¹,0.00897 s⁻¹,B4
589000 M⁻¹ s⁻¹,0.0024 s⁻¹,B5
514000 M⁻¹ s⁻¹,0.00524 s⁻¹,B6
585000 M⁻¹ s⁻¹,0.00389 s⁻¹,B7
231000 M⁻¹ s⁻¹,0.00295 s⁻¹,B8
1.75e+06 M⁻¹ s⁻¹,0.00802 s⁻¹,B9
688000 M⁻¹ s⁻¹,0.00561 s⁻¹,B10
478000 M⁻¹ s⁻¹,0.00471 s⁻¹,B11
380000 M⁻¹ s⁻¹,0.00366 s⁻¹,B12
2.84e+06 M⁻¹ s⁻¹,0.0354 s⁻¹,B13
261000 M⁻¹ s⁻¹,0.00199 s⁻¹,B14
2.57e+06 M⁻¹ s⁻¹,0.00664 s⁻¹,B15

# Test system: MPL-mutCALR cells (BaF3 cells stably expressing human MPL and human mutCALR)
# Assay: Flow cytometry binding to cell surface MPL and mutCALR (GMFI, four parameter fit)
# Conditions: four parameter curve fitting
# Experimental: To assess binding of CALR antibodies to cell surface CALR, parental BaF3 (DSMZ) cells or BaF3 cells stably expressing only human MPL or both human MPL (Uniprot Number: P40238-1) and human mutCALR Type 1 and Type 2 were used. On the day of the assay, cells were washed and resuspended in assay buffer. Approximately 200,000 cells/well were added to 96-well plates and stained with the indicated concentration of antibodies for 30 minutes on ice. Cells were then washed and stained with goat anti-human secondary conjugated to R-phycoerythrin (R-PE) (Jackson Immuno Research Laboratories) for 30 minutes on ice. The cells were then washed and analyzed by flow cytometry. Geometric Mean Fluorescence Intensity (GMFI) of cell binding was graphed and EC50, hill slope, and area under the curve (AUC) were determined after four parameter curve fitting using GraphPad Prism Software (version 7.04).
row,Molecule,MPL-mutCALR Hill Slope
1,B1,1.73
2,B2,0.31
3,B3,0.24
4,B4,0.37
5,B5,0.46
6,B6,0.31
7,B7,0.36
8,B8,0.28
9,B9,0.27
10,B10,0.39
11,B11,0.46
12,B12,0.28
13,B13,0.35
14,B14,0.41
15,B15,0.22

# Test system: Ba/F3 cells transfected with MPL and mutCALR Type 1
# Assay: Inhibition of cell proliferation, CellTiter-Glo 72 hours, mutCALR Type 1
# Format: cell-based
# Conditions: Ba/F3 engineered cells, high-throughput primary screening
# Experimental: To test the ability of anti-mutCALR antibodies to inhibit cell proliferation, engineered Ba/F3 cells transfected with MPL and mutCALR Type 1 were plated at 5,000 cells per well in RPMI 1640+2% FBS, antibodies added, incubated for 72 hours, and followed by assessment of cell viability using the CellTiter-Glo Luminescent Cell Viability Assay (Promega, Madison, Wis.) and Top Count (Perkin Elmer, Boston, Mass.) or Pherastar (BMG Labtech, Ortenberg, Germany) for luminescence quantification. Anti-mutCALR antibodies inhibit mutCALR-induced oncogenic cell proliferation in a dose-dependent manner in both the Ba/F3 engineered cells (FIG. 2).
# To test the ability of anti-mutCALR antibodies to inhibit oncogenic cell proliferation triggered by the Type 1 and Type 2 CALR mutations, Ba/F3 cells (DSMZ) were engineered to express MPL+mutCALR Type 1 (52 bp deletion, SEQ ID NO:320) or MPL+mutCALR Type 2 (5 bp insertion; SEQ ID NO:321). Cells were plated at 5,000 cells per well in RPMI 1640+2% FBS, antibodies added, incubated for 72 hours, and followed by assessment of cell viability using the CellTiter-Glo Luminescent Cell Viability Assay (Promega, Madison, Wis.) and Top Count (Perkin Elmer, Boston, Mass.) or Pherastar (BMG Labtech, Ortenberg, Germany) for luminescence quantification. Anti-mutant CALR antibodies show potency to inhibit mutCALR-induced oncogenic cell proliferation associated with both Type 1 and Type 2 mutations (FIG. 3).
row,IC50 inhibition of cell proliferation,Molecule
1,1212 ng/mL,B1
2,4.9 ng/mL,B2
3,11.3 ng/mL,B3
4,6.8 ng/mL,B4
5,4.3 ng/mL,B5
6,10.4 ng/mL,B6
7,3.5 ng/mL,B7
8,11.3 ng/mL,B8
9,6.7 ng/mL,B9
10,~2.898 ng/mL,B10
11,109.4 ng/mL,B11
12,4 ng/mL,B12
13,31.5 ng/mL,B13
14,4.5 ng/mL,B14
15,~9.274 ng/mL,B15
